Experimental data: PubChem BioAssay AID624418 (National Center for Advancing Translational Sciences (NCATS), 2012)
Among all 410,000 compounds or so, about 530 (0.13%) were called active. Inconclusive results, whose numbers are uncertain, are shown with a selection of clear calls. The call rests on the fitted dose curve; in most records, active means well fitted inhibition curve with a large enough effect; inconclusive means small, poorly fitted or top-dose-only effect, or another doubt; inactive means no such curve, though single readings can be large or run the other way. Potencies of inconclusive entries are doubtful fits and often do not repeat.
On the % scale 0 is the no-effect control and ±100 the full control effect; potency means the concentration at half of the fitted maximal effect.

Assay: qHTS of GLP-1 Receptor Inverse Agonists: Cytotox Screen
Details: HEK293 cAMP-luciferase reporter cells, luminescence, 24 h; activity change, negative = inhibition: at 38.3 µM (top of the series) unless noted
Summary of the method: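 To flag toxic compounds, the library was rerun on cells for 24 hr at 37 deg C and 5% CO2. Viability-linked luminescence was captured 12 min after adding luciferase detection reagent.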
For `Cc1nn(-c2ccccc2)c2c1N(CCCC(=O)NCc1ccc(Cl)cc1)C(=O)CS2`, the Potency was inconclusive: 11.2 µM [inhibitor, single point].
With `COc1ccc(-c2nnc(SCC(=O)NCc3ccccc3)nc2-c2ccc(OC)c(OC)c2)cc1OC` the Potency was inconclusive: 3.98 µM [inhibitor, full curve, poor fit].
For `Cc1cc(C)n(CC(O)Cn2c3ccc(Cl)cc3c3cc(Cl)ccc32)c(=O)n1` (stereo unspecified), the Potency was inconclusive: 14.1 µM [inhibitor, single point].
With `CCOC(=O)c1cc(-c2ccc(F)cc2)n(CC(=O)NCc2ccc(OC)cc2)c1C` the “activity change, negative = inhibition” value was inactive: 3.04%.
With `CCNC1CCC(Nc2ccnc3cc(Cl)ccc23)CC1` (stereo unspecified) the Potency was inconclusive: 1.26 µM [inhibitor, full curve, poor fit].
In the case of `O=c1cc(N2CCCCC2)c(-c2ccccc2)nn1Cc1ccc(F)cc1`, the “activity change, negative = inhibition” value is reported as inactive: -5.07%.
In the case of `c1ccc(SCc2cn(C[C@H]3CC[C@@H]([C@@H]4CC[C@H](Cn5cc(CSc6ccccc6)nn5)O4)O3)nn2)cc1`, the Potency is reported as inconclusive: 11.2 µM [inhibitor, single point].
For `CCOc1cc(C2C(C#N)=C(N)OC(C)=C2C(C)=O)c(Br)c(Br)c1OC(C)C` (stereo unspecified), the Potency was inconclusive: 3.55 µM [inhibitor, partial curve, poor fit].
In the case of `O=C(/C=C/c1cccc([N+](=O)[O-])c1)NCCSCc1ccccc1Cl`, the Potency is reported as inconclusive: 7.08 µM [inhibitor, partial curve, poor fit].
In the case of `COC(=O)CSC1=C(C#N)C(c2cccc(F)c2)CC(=O)N1` (stereo unspecified), the Potency is reported as inconclusive: 28.2 µM [inhibitor, single point].
With `NC(=S)N=Nc1c(O)n(Cc2ccc(F)cc2)c2ccccc12` the Potency was inconclusive: 2 µM [inhibitor, full curve, poor fit].
For `CC1CCCC(C)N1CC(O)COc1c(F)cc(Br)cc1F` (stereo unspecified), the Potency was inconclusive: 11.2 µM [inhibitor, single point].
With `O=C(N/N=C/c1ccc(OCC(=O)N2CCOCC2)cc1)c1ccccc1Cl` the “activity change, negative = inhibition” value was inactive: 9.98%.
For `O=C(c1ccccc1Cl)N1CCN(CCc2ccccn2)CC1`, the “activity change, negative = inhibition” value was inactive: 8.77%.
In the case of `CCOc1ccc2[nH]c(=O)c(CN(Cc3cccs3)Cc3nnnn3C(C)(C)C)cc2c1`, the Potency is reported as inconclusive: 28.2 µM [inhibitor, single point].
With `c1cncc(-c2nnc(-c3cccnc3)nn2)c1` the Potency was inconclusive: 28.2 µM [inhibitor, single point].
For `Cc1ccc(S(=O)(=O)Nc2ccc(NC(=O)c3c(F)c(F)c(F)c(F)c3F)cc2)cc1`, the Potency was inconclusive: 3.16 µM [inhibitor, full curve].
With `C[C@@H](NC(=O)CN(c1ccccc1)S(=O)(=O)N(C)C)c1ccccc1` the “activity change, negative = inhibition” value was inactive: 0.0495%.
For `CCSc1ccc(-c2cc(NC=O)c3ncc(-c4cccc(C(=O)NCCN(C)C)c4)n3c2)cc1`, the Potency was inconclusive: 22.4 µM [inhibitor, single point].
With `CCN1CCN(C(=O)c2ccc3c(c2)N(Cc2ccccc2F)C(=O)c2ccccc2S3(=O)=O)CC1` the Potency was “inactive”.
For `COc1ccc(NC(=O)c2sc3nc4c(cc3c2N)CCCCCC4)cc1Cl`, the “activity change, negative = inhibition” value was inactive: 5.34%.
In the case of `COc1cccc(NS(=O)(=O)c2ccc(Br)s2)c1`, the “activity change, negative = inhibition” value is reported as inactive: 1.02%.
In the case of `Fc1cccc(CCN2C(=S)NC[C@@H]2CC2CCCCC2)c1`, the Potency is reported as inconclusive: 28.2 µM [inhibitor, partial curve, poor fit].
With `O=C(NCCc1ccccc1)c1ccc(=O)[nH]c1` the Potency was inconclusive: 28.2 µM [inhibitor, single point].
In the case of `O=C(NCC1CCCO1)c1cc2c([nH]c3ccccc32)c(-c2ccc(F)cc2)n1` (stereo unspecified), the Potency is reported as inconclusive: 7.08 µM [inhibitor, partial curve, poor fit].
With `Cc1ccccc1C(=O)c1cccn1CC(=O)NCCN1CCN(c2cccc(C)c2C)CC1` the Potency was inconclusive: 28.2 µM [inhibitor, single point].
With `COc1ccc(C(=O)/C=C/c2cc(OC)c(O)c(OC)c2)c(F)c1` the Potency was inconclusive: 10 µM [inhibitor, single point].
For `N/C(CCS(=O)(=O)c1ccc(Cl)cc1)=N\OC(=O)c1ccccc1C(F)(F)F`, the Potency was active: 10 µM.
For `CC(C)(C)NC(=O)Nc1ccc(F)c(Cl)c1`, the Potency was inconclusive: 28.2 µM [inhibitor, single point].
With `O=C(O)C1Cc2ccccc2CN1C(=O)COc1ccc(Cl)cc1` (stereo unspecified) the “activity change, negative = inhibition” value was inactive: -0.692%.
In the case of `Cc1cccnc1NC(=O)CCNC(=O)c1ccc(Br)cc1`, the Potency is reported as inconclusive: 4.47 µM [inhibitor, full curve].
For `COc1ccc(-c2n[nH]c(C)c2-c2ccc(Cl)cc2)c(O)c1OC`, the Potency was inconclusive: 10 µM [inhibitor, single point].
For `C/C(=N\NC(=O)c1cccc(Br)c1)c1ccc(Br)cc1`, the “activity change, negative = inhibition” value was inactive: 29.3%.
In the case of `CC(=O)n1cc(N(C(=O)CCl)c2ccc([N+](=O)[O-])cc2)c2ccccc21`, the Potency is reported as inconclusive: 28.2 µM [inhibitor, single point].
For `Cn1cnc(S(=O)(=O)N2CCN(c3ccccc3)CC2)c1`, the “activity change, negative = inhibition” value was inactive: -6.03%.
In the case of `Cc1cccc(CN2CCOCCS2(=O)=O)c1`, the Potency is reported as inconclusive: 0.562 µM [inhibitor, full curve, poor fit].
With `CC1(C)CCSC(/C=C/c2ccccc2)=N1` the Potency was inconclusive: 12.6 µM [inhibitor, partial curve, poor fit].
With `S=C(NC1CCCCC1)NN(c1ccccc1)c1ccccc1` the Potency was inconclusive: 14.1 µM [inhibitor, single point].
With `COc1ccc(C(=O)N/N=C\c2coc3ccc(Cl)cc3c2=O)cc1` the Potency was inconclusive: 28.2 µM [inhibitor, single point].
For `CC(=O)c1sc(N/N=C2\CC3CC2C(C)C3(C)C)nc1C` (stereo unspecified), the Potency was inconclusive: 14.1 µM [inhibitor, single point].
In the case of `COc1cc(C(=O)NCCc2c[nH]c3ccccc23)ccc1OCc1c(C)noc1C`, the Potency is reported as inconclusive: 20 µM [inhibitor, single point].
With `FC(F)(F)c1cccc(CNC(=S)Nc2ccccc2)c1` the Potency was inconclusive: 28.2 µM [inhibitor, single point].
For `CCCCC(CC(O)COCC(C)C)C(=O)NNC(=S)Nc1ccccc1` (stereo unspecified), the “activity change, negative = inhibition” value was inactive: 4.03%.
In the case of `O=C(O)c1cc(Cl)c2c(c1)[C@@H]1C=CC[C@@H]1[C@H](c1ccc(S(=O)(=O)N3CCOCC3)cc1)N2`, the “activity change, negative = inhibition” value is reported as inactive: 3.35%.
In the case of `CCCCN1C(=O)C2C(C(=O)Nc3cccc(OC)c3)C3C=CC2(O3)C1C(=O)NC1CCCCC1C` (stereo unspecified), the Potency is reported as inconclusive: 2.51 µM [inhibitor, partial curve, poor fit].
With `COc1ccc(-c2oc3ncnc(NCCCN4CCOCC4)c3c2-c2ccc(OC)cc2)cc1` the “activity change, negative = inhibition” value was inactive: -6.66%.
With `Cc1ccc(CSCCC(=O)NCCC2=CCCCC2)cc1` the “activity change, negative = inhibition” value was inactive: -15.7%.
With `C=CC[n+]1c(/C=C/c2ccc(OC(C)=O)c(OC)c2)ccc2ccccc21` the Potency was inconclusive: 12.6 µM [inhibitor, single point].
With `COc1ccc(NC(=O)C2(C)Cc3c(-c4cccc(NC(C)=O)c4)ccnc3O2)cn1` (stereo unspecified) the Potency was inconclusive: 1 µM [inhibitor, full curve].
In the case of `C[C@H](CO)N1C[C@H](C)[C@@H](CN(C)C(=O)Nc2ccc(C(F)(F)F)cc2)Oc2c(NS(=O)(=O)c3ccccc3)cccc2C1=O`, the Potency is reported as inconclusive: 3.16 µM [inhibitor, full curve, poor fit].
With `C/C(=N\NC(=S)NCCc1ccccc1)c1cccs1` the Potency was inconclusive: 11.2 µM [inhibitor, single point].
In the case of `O=C(c1ccco1)N1CCN(c2c(-c3ccccc3)c3cc(Cl)ccc3[nH]c2=O)CC1`, the Potency is reported as inconclusive: 2.24 µM [inhibitor, partial curve, poor fit].
In the case of `CN=c1scc(-c2ccccc2F)n1/N=C/c1ccc(O)c(O)c1O`, the Potency is reported as inconclusive: 10 µM [inhibitor, single point].
With `CCOc1ccc(Cl)cc1/C=N/NC(=O)c1ccccc1` the “activity change, negative = inhibition” value was inactive: 2.72%.
For `Cc1ccc2c(c1)c1c(n2CC(O)Cn2c(C)nc3ccccc32)CCCC1` (stereo unspecified), the Potency was inconclusive: 11.2 µM [inhibitor, single point].
In the case of `O=C(c1cn[nH]c1)N1CCc2c([nH]c3ccccc23)C1c1c(F)cccc1Cl` (stereo unspecified), the Potency is reported as inconclusive: 28.2 µM [inhibitor, single point].
In the case of `Cc1ccc(CN2CCC(CNC(=O)c3cc4ccc5cccnc5c4[nH]3)CC2)cc1`, the Potency is reported as inconclusive: 22.4 µM [inhibitor, single point].
With `Cc1onc(-c2c(F)cccc2Cl)c1C(=O)Nc1nc2ccccc2[nH]1` the Potency was inconclusive: 28.2 µM [inhibitor, single point].
In the case of `CNc1cc([N+](=O)[O-])ccc1N/C=C/C(=O)c1cccs1`, the Potency is reported as inconclusive: 28.2 µM [inhibitor, single point].
With `CCn1c(-c2csc(C(C)C)c2)n[nH]c1=S` the Potency was inconclusive: 31.6 µM [inhibitor, single point].
In the case of `COc1ccc(NC(=S)N/N=C/c2ccc(F)c(F)c2)cc1`, the Potency is reported as inconclusive: 5.62 µM [inhibitor, full curve].
With `CCNC(=O)C12CCC(C)(c3nc4cc(C)c(C)cc4nc31)C2(C)C` (stereo unspecified) the Potency was inconclusive: 12.6 µM [inhibitor, single point].
With `COc1ccc(Oc2nc3c(c(=O)n(C)c(=O)n3C)n2Cc2ccccc2Cl)cc1` the “activity change, negative = inhibition” value was inactive: 2.95%.
For `CNC(=S)Nc1cc2oc3ccccc3c2cc1OC`, the Potency was inconclusive: 31.6 µM [inhibitor, single point].
For `COc1ccc(/C=C2\SC(=S)N(CCCC(=O)N3CCOCC3)C2=O)cc1`, the “activity change, negative = inhibition” value was inactive: 4.8%.
In the case of `O=[N+]([O-])c1cccc(C2Nc3cccc4cccc(c34)N2)c1`, the Potency is reported as inconclusive: 12.6 µM [inhibitor, single point].
